Source: the supplement of paper PMC8728848
This is one part of the list.

What was measured:
Assay in all cases: glycan array binding signal (z-score within array); higher = stronger binding
Conditions in all cases: glycan notation: IUPAC condensed, linker removed
[1] = biological target: Neu5Ac(a2-3)Gal(b1-3)GlcNAc6S
Procedure, shortened: (§1)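 Glycan array binding is given as a within-array Z-score, which can be read as non-binding when negative. The arrays, 3228 of them, came from the Consortium for Functional Glycomics database and were retained only where the protein sequence was available. Z-scores were averaged across arrays of the same protein sequence at different concentrations or buffers and across linkers.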

[2] = biological target: Neu5Ac(a2-3)Gal(b1-3)[Fuc(a1-4)]GlcNAc
Procedure, shortened: as §1

[3] = biological target: Neu5Ac(a2-3)Gal(b1-3)[Fuc(a1-4)]GlcNAc(b1-3)Gal(b1-3)[Fuc(a1-4)]GlcNAc
Procedure, shortened: as §1

[4] = biological target: Neu5Ac(a2-3)Gal(b1-3)[Fuc(a1-4)]GlcNAc(b1-3)Gal(b1-4)[Fuc(a1-3)]GlcNAc
Procedure, shortened: as §1

[5] = biological target: Neu5Ac(a2-3)Gal(b1-3)[GlcNAc(b1-6)]GalNAc
Procedure, shortened: as §1

[6] = biological target: Neu5Ac(a2-3)Gal(b1-3)[Neu5Ac(a2-6)]GalNAc
Procedure, shortened: as §1

[7] = biological target: Neu5Ac(a2-3)Gal(b1-3)[Neu5Ac(a2-6)]GlcNAc(b1-3)[Fuc(a1-3)[Gal(b1-4)]GlcNAc(b1-6)]Gal(b1-4)Glc
Procedure, shortened: as §1

[8] = biological target: Neu5Ac(a2-3)Gal(b1-3)]Neu5Ac(a2-3)Gal(b1-4)]GlcNAc
Procedure, shortened: as §1

Neu5Ac(a2-3)Gal(b1-4)Glc = biological target: Neu5Ac(a2-3)Gal(b1-4)Glc
Procedure, shortened: as §1

[9] = biological target: Neu5Ac(a2-3)Gal(b1-4)GlcNAc
Procedure, shortened: as §1

[10] = biological target: Neu5Ac(a2-3)Gal(b1-4)GlcNAc(b1-2)Man
Procedure, shortened: as §1

[11] = biological target: Neu5Ac(a2-3)Gal(b1-4)GlcNAc(b1-2)Man(a1-3)[GlcNAc(b1-4)][Neu5Ac(a2-3)Gal(b1-4)GlcNAc(b1-2)Man(a1-6)]Man(b1-4)GlcNAc(b1-4)GlcNAc
Procedure, shortened: as §1

[12] = biological target: Neu5Ac(a2-3)Gal(b1-4)GlcNAc(b1-2)Man(a1-3)[Neu5Ac(a2-3)Gal(b1-4)GlcNAc(b1-2)Man(a1-6)]Man(b1-4)GlcNAc(b1-4)GlcNAc
Procedure, shortened: as §1

[13] = biological target: Neu5Ac(a2-3)Gal(b1-4)GlcNAc(b1-2)Man(a1-3)[Neu5Ac(a2-3)Gal(b1-4)GlcNAc(b1-2)Man(a1-6)]Man(b1-4)GlcNAc(b1-4)[Fuc(a1-6)]GlcNAc
Procedure, shortened: as §1

[14] = biological target: Neu5Ac(a2-3)Gal(b1-4)GlcNAc(b1-2)Man(a1-3)[Neu5Ac(a2-6)Gal(b1-4)GlcNAc(b1-2)Man(a1-6)]Man(b1-4)GlcNAc(b1-4)GlcNAc
Procedure, shortened: as §1

[15] = biological target: Neu5Ac(a2-3)Gal(b1-4)GlcNAc(b1-2)[Neu5Ac(a2-3)Gal(b1-4)GlcNAc(b1-4)]Man(a1-3)[GlcNAc(b1-4)][Neu5Ac(a2-3)Gal(b1-4)GlcNAc(b1-2)[Neu5Ac(a2-3)Gal(b1-4)GlcNAc(b1-6)]Man(a1-6)]Man(b1-4)GlcNAc(b1-4)GlcNAc
Procedure, shortened: as §1

[16] = biological target: Neu5Ac(a2-3)Gal(b1-4)GlcNAc(b1-2)[Neu5Ac(a2-3)Gal(b1-4)GlcNAc(b1-4)]Man(a1-3)[GlcNAc(b1-4)][Neu5Ac(a2-3)Gal(b1-4)GlcNAc(b1-4)Man(a1-6)]Man(b1-4)GlcNAc(b1-4)GlcNAc
Procedure, shortened: as §1

[17] = biological target: Neu5Ac(a2-3)Gal(b1-4)GlcNAc(b1-2)[Neu5Ac(a2-3)Gal(b1-4)GlcNAc(b1-6)]Man(a1-6)[Neu5Ac(a2-3)Gal(b1-4)GlcNAc(b1-2)Man(a1-3)]Man(b1-4)GlcNAc(b1-4)GlcNAc
Procedure, shortened: as §1

[18] = biological target: Neu5Ac(a2-3)Gal(b1-4)GlcNAc(b1-2)[Neu5Ac(a2-3)Gal(b1-4)GlcNAc(b1-6)]Man(a1-6)[Neu5Ac(a2-3)Gal(b1-4)GlcNAc(b1-2)Man(a1-3)][GlcNAc(b1-4)]Man(b1-4)GlcNAc(b1-4)GlcNAc
Procedure, shortened: as §1

[19] = biological target: Neu5Ac(a2-3)Gal(b1-4)GlcNAc(b1-3)Gal
Procedure, shortened: as §1

[20] = biological target: Neu5Ac(a2-3)Gal(b1-4)GlcNAc(b1-3)Gal(b1-3)GlcNAc
Procedure, shortened: as §1

[21] = biological target: Neu5Ac(a2-3)Gal(b1-4)GlcNAc(b1-3)Gal(b1-4)GlcNAc
Procedure, shortened: as §1

[22] = biological target: Neu5Ac(a2-3)Gal(b1-4)GlcNAc(b1-3)Gal(b1-4)GlcNAc(b1-2)Man(a1-3)[Neu5Ac(a2-3)Gal(b1-4)GlcNAc(b1-3)Gal(b1-4)GlcNAc(b1-2)Man(a1-6)]Man(b1-4)GlcNAc(b1-4)GlcNAc
Procedure, shortened: as §1

[23] = biological target: Neu5Ac(a2-3)Gal(b1-4)GlcNAc(b1-3)Gal(b1-4)GlcNAc(b1-3)Gal(b1-4)GlcNAc
Procedure, shortened: as §1

[24] = biological target: Neu5Ac(a2-3)Gal(b1-4)GlcNAc(b1-3)Gal(b1-4)GlcNAc(b1-3)Gal(b1-4)GlcNAc(b1-2)Man(a1-3)[Neu5Ac(a2-3)Gal(b1-4)GlcNAc(b1-3)Gal(b1-4)GlcNAc(b1-3)Gal(b1-4)GlcNAc(b1-2)Man(a1-6)]GalNAc
Procedure, shortened: as §1

[25] = biological target: Neu5Ac(a2-3)Gal(b1-4)GlcNAc(b1-3)Gal(b1-4)GlcNAc(b1-3)GalNAc
Procedure, shortened: as §1

[26] = biological target: Neu5Ac(a2-3)Gal(b1-4)GlcNAc(b1-3)Gal(b1-4)GlcNAc(b1-3)[Neu5Ac(a2-3)Gal(b1-4)GlcNAc(b1-3)Gal(b1-4)GlcNAc(b1-6)]GalNAc
Procedure, shortened: as §1

[27] = biological target: Neu5Ac(a2-3)Gal(b1-4)GlcNAc(b1-3)Gal(b1-4)GlcNAc(b1-6)[Gal(b1-3)]GalNAc
Procedure, shortened: as §1

[28] = biological target: Neu5Ac(a2-3)Gal(b1-4)GlcNAc(b1-3)Gal(b1-4)[Fuc(a1-3)]GlcNAc
Procedure, shortened: as §1

[29] = biological target: Neu5Ac(a2-3)Gal(b1-4)GlcNAc(b1-3)GalNAc
Procedure, shortened: as §1

[30] = biological target: Neu5Ac(a2-3)Gal(b1-4)GlcNAc(b1-3)[Neu5Ac(a2-3)Gal(b1-4)GlcNAc(b1-6)]GalNAc
Procedure, shortened: as §1

[31] = biological target: Neu5Ac(a2-3)Gal(b1-4)GlcNAc(b1-6)GalNAc
Procedure, shortened: as §1

[32] = biological target: Neu5Ac(a2-3)Gal(b1-4)GlcNAc(b1-6)[Gal(b1-3)]GalNAc
Procedure, shortened: as §1

[33] = biological target: Neu5Ac(a2-3)Gal(b1-4)GlcNAc(b1-6)[Neu5Ac(a2-3)Gal(b1-3)]GalNAc
Procedure, shortened: as §1

[34] = biological target: Neu5Ac(a2-3)Gal(b1-4)GlcNAc6S
Procedure, shortened: as §1

[35] = biological target: Neu5Ac(a2-3)Gal(b1-4)[Fuc(a1-3)]GlcNAc
Procedure, shortened: as §1

[36] = biological target: Neu5Ac(a2-3)Gal(b1-4)[Fuc(a1-3)]GlcNAc(b1-2)Man
Procedure, shortened: as §1

[37] = biological target: Neu5Ac(a2-3)Gal(b1-4)[Fuc(a1-3)]GlcNAc(b1-3)Gal
Procedure, shortened: as §1

[38] = biological target: Neu5Ac(a2-3)Gal(b1-4)[Fuc(a1-3)]GlcNAc(b1-3)Gal(b1-4)GlcNAc
Procedure, shortened: as §1

[39] = biological target: Neu5Ac(a2-3)Gal(b1-4)[Fuc(a1-3)]GlcNAc(b1-3)Gal(b1-4)[Fuc(a1-3)]GlcNAc(b1-3)Gal(b1-4)[Fuc(a1-3)]GlcNAc
Procedure, shortened: as §1

[40] = biological target: Neu5Ac(a2-3)Gal(b1-4)[Fuc(a1-3)]GlcNAc(b1-3)GalNAc
Procedure, shortened: as §1

[41] = biological target: Neu5Ac(a2-3)Gal(b1-4)[Fuc(a1-3)]GlcNAc(b1-6)[Gal(b1-3)]GalNAc
Procedure, shortened: as §1

[42] = biological target: Neu5Ac(a2-3)Gal(b1-4)[Fuc(a1-3)]GlcNAc(b1-6)[Neu5Ac(a2-3)Gal(b1-3)]GalNAc
Procedure, shortened: as §1

[43] = biological target: Neu5Ac(a2-3)Gal(b1-4)[Fuc(a1-3)]GlcNAc6S
Procedure, shortened: as §1

[44] = biological target: Neu5Ac(a2-3)Gal6S(b1-4)GlcNAc
Procedure, shortened: as §1

B1: CrataBL (Crataeva tapia), C0HJA4 (protein)
chain: AILTGVPYYILPSTSRAGFSPDNLRKNTSQLSCPLDLITQLRFPRRIGVPVIFTPQNSSLKVVPLSHNLNIHTCSDLWFCPESKIWTVKSSLTHGGSVVTTGGTFRSLGSWFRIERHGDSYKLVHCPRGSTPCRDVGIETVGGGGRRYLAPRDRPLAVRFTRASG
[1]
  glycan array binding signal (z-score): 1.78
[2]
  glycan array binding signal (z-score): -0.062
[3]
  glycan array binding signal (z-score): -0.23
[4]
  glycan array binding signal (z-score): 0.645
[5]
  glycan array binding signal (z-score): -0.051
[6]
  glycan array binding signal (z-score): -0.452
[7]
  glycan array binding signal (z-score): 0.188
[8]
  glycan array binding signal (z-score): 0.416
Neu5Ac(a2-3)Gal(b1-4)Glc
  glycan array binding signal (z-score): 0.553
[9]
  glycan array binding signal (z-score): -0.106
[10]
  glycan array binding signal (z-score): 0.595
[11]
  glycan array binding signal (z-score): -0.447
[12]
  glycan array binding signal (z-score): -0.001
[13]
  glycan array binding signal (z-score): -0.482
[14]
  glycan array binding signal (z-score): -0.302
[15]
  glycan array binding signal (z-score): -0.301
[16]
  glycan array binding signal (z-score): -0.454
[17]
  glycan array binding signal (z-score): 0.127
[18]
  glycan array binding signal (z-score): -0.386
[19]
  glycan array binding signal (z-score): -0.009
[20]
  glycan array binding signal (z-score): -0.212
[21]
  glycan array binding signal (z-score): 0.173
[22]
  glycan array binding signal (z-score): 0.515
[23]
  glycan array binding signal (z-score): -0.389
[24]
  glycan array binding signal (z-score): 2.17
[25]
  glycan array binding signal (z-score): -0.093
[26]
  glycan array binding signal (z-score): 0.18
[27]
  glycan array binding signal (z-score): 0.174
[28]
  glycan array binding signal (z-score): 0.392
[29]
  glycan array binding signal (z-score): -0.161
[30]
  glycan array binding signal (z-score): 0.163
[31]
  glycan array binding signal (z-score): -0.258
[32]
  glycan array binding signal (z-score): 0.274
[33]
  glycan array binding signal (z-score): -0.225
[34]
  glycan array binding signal (z-score): 2.07
[35]
  glycan array binding signal (z-score): -0.458
[36]
  glycan array binding signal (z-score): -0.243
[37]
  glycan array binding signal (z-score): -0.448
[38]
  glycan array binding signal (z-score): 0.187
[39]
  glycan array binding signal (z-score): -0.51
[40]
  glycan array binding signal (z-score): 0.295
[41]
  glycan array binding signal (z-score): 0.218
[42]
  glycan array binding signal (z-score): 0.468
[43]
  glycan array binding signal (z-score): 1.2
[44]
  glycan array binding signal (z-score): 0.608
